Reference: patent US20230293588A1 (RUBIUS THERAPEUTICS, published 2023)

Molecular target: 41-BB receptor on cells (T-cells of PBMCs; Jurkat cells overexpressing 41-BB and NFkB-Luc2P) (UniProt Q07011 24-255)
Assay: cell-based or functional assay

B1: 41-BB-L expressed on RCTs (RCT-41-BB-L) (ligand)
chain: not shown
NFkB-mediated luciferase expression: 30 fold
T-cell proliferation: 1.7 fold
